In all, about 33,000 sequences were measured (“E-score (-0.5 to 0.5)”: median about -0.054, highest 2% from about 0.39 on). This is one part of the list.
The sequences below were run against Ylr278c (UniProt Q05854) (assay: PBM E-score (8-mer binding enrichment) (E-score (-0.5 to 0.5)); higher = stronger / more preferred TF binding; most listed sequences are background and not binding sites). Settings: protein concentration: 200 nM; construct: GST-DNA-binding domain.
Method: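 Universal 'all 10-mer' protein binding microarrays (Agilent AMADID 015681) probed with GST-tagged S. cerevisiae TFs (full-length or DBD) made by in vitro transcription/translation (PURExpress), about 100-200 nM. Bound TF was detected with fluorescent anti-GST. Each ungapped 8-mer (which stands for itself and its reverse complement) is scored by the PBM enrichment score (E-score), a modified Wilcoxon-Mann-Whitney statistic from -0.5 to +0.5, computed with the Universal PBM Analysis Suite. Scale: above 0.35 generally sequence-specific binding.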

Sequence | PBM E-score
GCGATGCC | 0.0401
GTGAGCAA | -0.151
CCTAGGAC | -0.145
GAGTCAGC | -0.177
CCCCTCAC | -0.0114
GCTTCTGA | 0.0266
AGACATGA | -0.29
GGAACTTA | 0.155
AAGAGCGT | -0.0223
ATTCACAC | -0.111
GCTACGCA | -0.0598
GGCCTCCC | 0.00603
ACTCCCAT | -0.16
AGAATTCA | -0.205
CTTCTGGA | -0.00858
TGCTTCCA | -0.38
AGGGCCAG | -0.235
ACTGCAGT | -0.278
ACGAACAT | 0.0644
CGCTGTAA | -0.00822
ACACATTG | 0.0706
ATTGACTG | -0.19
TTATACAA | 0.0139
ATTTTCGG | 0.376
CCGGGACG | 0.322

Sequence | PBM E-score
CATCTCCA | 0.0295
GGGATTAA | 0.223
ATAAGGAA | -0.248
GTCATCTA | -0.101
GACATGCC | 0.00109
AGAAATCT | 0.0291
AGCCCTAC | -0.066
GTGTTGCA | 0.023
CAATAGCG | 0.0458
CTATTAAC | -0.0715
TGGGAGAA | -0.208
ATCAGCCG | 0.208
ACATCCGC | 0.352
CATCCGAC | 0.289
ACAGGATG | 0.0452
ACAGGAGA | -0.0277
ACTCCCAG | 0.0262
ACAGATGT | -0.119
GCGCGCGA | 0.201
ACTTGGAG | -0.0915
AGTCGACT | -0.0186
ACTATGGC | -0.287
AGGTTTGC | -0.0682
GGTGCGCA | 0.132
AGTGTGGA | -0.0758

Sequence | PBM E-score
ATTCGACG | -0.067
ATACCCAC | 0.101
TATTCAAA | -0.114
GACGAAAC | 0.0422
ACATTCCC | 0.129
GCTTCACC | -0.0695
CTCATCAG | -0.0816
AGGACCGA | 0.0864
CAGCGTGA | -0.284
AGGATTTA | 0.00139
ATGTTTAG | -0.101
TCTCCCAA | -0.00572
AGTGTCAT | -0.146
AAGATAAA | -0.0217
AAGCGGTA | 0.038
ACGCGAGG | -0.0852
CCTCTATC | -0.149
ATCTTGTG | -0.263
AAGGAAGT | 0.0463
CATAACCG | 0.0997
CCCCGGCC | 0.287
ATCCTCAG | 0.0306
CGCCTCGA | -0.0522
AACAAAGC | 0.021
ACGCAAAA | -0.0506

Sequence | PBM E-score
CCCCTACA | -0.101
AGTTTCAT | 0.0398
GCAGCATA | -0.106
CCACCGCA | 0.115
TACATTCA | -0.223
TACAGACA | -0.175
CCTTCCGA | 0.25
GGTTTTAC | 0.0115
TGACGACA | -0.022
CCCGCGCA | 0.252
AACGGTAG | -0.108
GCACTGGC | -0.215
ATGCTTAC | -0.252
CTTCGAAG | -0.118
GATCGTGC | -0.0347
GAAAAGCA | -0.133
CACCAGAC | -0.0118
CCGCCGCC | 0.304
GCAAGCAA | -0.095
AATTGGAG | -0.157
CAAATTTA | 0.016
CATGCGAC | -0.177
ACTCGTCC | -0.0356
GAGCACAA | 0.089
CAAAAAGC | 0.142

Sequence | PBM E-score
CGCGCGGC | 0.325
ATCTTAAC | -0.14
ATTGTCCA | -0.113
AGGTTTAG | -0.0626
AACAATTC | -0.0718
TATCCCGA | 0.258
CAGGTCTC | -0.273
CTATTAAA | -0.163
CCTGGCAC | -0.165
AATTAGTG | -0.0849
GAATCCCA | -0.0924
TCGTTCAA | -0.123
AGTATAAC | -0.215
CGGAGTCA | 0.457
CAGGGCCG | 0.181
ATTGCTGC | -0.0351
CAACCCTC | -0.121
GGTTAACA | 0.0497
CCCGGCTA | 0.299
ACCTTAGA | 0.0129
AGAAGCTG | -0.172
ACAGATTA | -0.129
AGGATGCC | -0.0669
AGTAGAAC | -0.246
ATCATAAC | -0.08

Sequence | PBM E-score
GGATCTTA | 0.135
CTAGAAGC | -0.113
CCAGTAGA | -0.279
AGCATTCG | -0.0217
ACTCCTAG | -0.114
ATGACACC | -0.183
TCGGAACA | 0.417
GGGGCTGA | -0.132
GAGCGTCC | -0.0249
AATGGACG | 0.103
AGAGTCGC | -0.14
AATGTTGG | -0.0382
GAAACCGC | 0.199
ATTTAACG | 0.164
AAGGGCCT | -0.252
CGTAGCCC | 0.0595
ATCGATTA | -0.0212
GCACTACA | -0.234
ACGTATCT | -0.108
CCAATGCC | 0.158
CACTGGGA | -0.268
TAGTTCCA | -0.215
AATATCTG | -0.0672
AATGGTGC | 0.0412
AGGGGGGA | -0.26

Sequence | PBM E-score
ATTCTTCA | 0.0434
CGGTACAC | 0.0775
GACTGATA | -0.144
AGCTCCGC | 0.436
ACTAACGC | 0.0051
AACAAGAC | -0.0898
CTGATGTC | 0.0488
ACTGAACC | 0.162
AACGGCGA | 0.244
GGGCATCA | -0.137
AACTTGAG | -0.153
ATGTGCTA | 0.0403
GTCCCACA | 0.0487
AGTAACTC | 0.041
CATCCACA | -0.174
CGACCATC | -0.032
GTAGTACA | -0.233
ATCACGAT | -0.164
ACGCTAAG | -0.345
GGACAGGA | -0.0534
ATCGAAGG | -0.0782
GTGTGAAA | -0.0146
GGCAGATA | 0.13
CCCACCGA | 0.00192
CTATCTGA | -0.328

Sequence | PBM E-score
GCCGTCGC | 0.0738
TAATCTGA | -0.185
ACGCTTTA | -0.298
CGATTTCC | 0.336
CAGGTCAC | -0.261
ACGCAGAG | -0.118
GGTTAAGA | -0.204
CAGGCGAC | -0.0604
AGTGTGGG | 0.0815
AGCAAAGG | -0.0467
GGCGATTA | 0.164
AATGCTAA | -0.0396
GAAACTCC | 0.399
CTTTTATC | 0.00807
ATTTCGAA | 0.0794
CTTGTCCC | 0.164
GGTGAAAC | 0.0866
TCAGATCA | -0.247
GTACGAGA | -0.0211
ACATGACC | -0.182
AGTAAGAC | -0.128
GTTGCGTA | 0.0604
CGAAATAC | 0.135
AAGCTATA | -0.0999
AGCAAATA | -0.0583

Sequence | PBM E-score
GGCTCTAA | -0.0326
CAAGGGTC | 0.0181
CGTAACGC | 0.0321
AGGTCAAG | -0.0669
CCCGCTTA | 0.0741
GCAGCTCC | 0.107
CAGCCATG | -0.304
GGTTAGAA | -0.15
TACTAGAA | -0.0203
ATCTCGTA | -0.292
AACGGAGT | 0.448
ACGTAAGC | -0.162
CGAGGTGC | 0.173
GCTAGCTA | -0.221
ATGGAGAC | -0.103
ATTATATC | -0.147
GAGCCCAA | -0.116
CATGCACC | -0.0878
CTCGAGTC | -0.103
GGTATGAA | -0.144
GGGTTGCA | -0.136
AAGATTGC | 0.049
CTGCGTGA | -0.0239
CGGTATTC | 0.317
AAAGTTAT | -0.0557

Sequence | PBM E-score
CCAGATAG | -0.286
CTCGCGTC | 0.0578
CAATATAC | -0.0223
AGTTGACA | -0.0988
CCGGCGTC | 0.355
ACCGCATA | 0.13
ACACCGAT | 0.165
CCTACATC | 0.144
GCTCATCA | -0.101
ACAGACAC | -0.141
CGTGCTTA | 0.00648
ACTATTCT | -0.101
GCCATCCC | 0.0681
CCAAGGAC | -0.0974
CAAGCTGC | -0.103
CAATAACA | -0.107
AGTGCTAC | -0.361
AGAATTGC | -0.0267
TGAGCAAA | -0.0941
AGAACGCA | -0.0793
TCGATCAA | -0.0973
TCTGTCAA | -0.225
ATGTCCGC | 0.403
CTGTCTGA | -0.224
TTAGATAA | -0.214

Sequence | PBM E-score
CGTGCATA | -0.0925
GACATCGC | 0.0737
ATAAGGTG | -0.0571
ATGGTCCA | -0.199
TCGGACAA | 0.434
GAATTATC | -0.137
CACAAAAC | 0.0121
CCCCATCC | -0.0388
CTCGTATC | -0.115
CAACAGTC | -0.0332
CGGTTTCC | 0.304
AATCACGA | -0.0732
CCCTAGGA | -0.137
AGGTACAT | -0.235
CCGAAGAA | 0.292
ACGAACCC | 0.0908
TATACTCA | -0.185
ATAATTTC | 0.097
GCTCCTCA | -0.0972
AGTCAGTA | 0.00611
GCCAAACC | 0.119
ATCCTATC | 0.0564
GTGAGACA | 0.0187
ATAGGAAA | 0.0106
AGTCCTTC | -0.128

Sequence | PBM E-score
CGATGCCG | 0.285
CCCATCCA | -0.119
CAAAGCAA | -0.0505
CGAGCGGC | 0.279
GCCGGCCA | 0.359
ACTCAACC | -0.0547
AGTCAGTC | -0.236
GAGCTAAC | 0.15
AATTCCGG | 0.48
ACCCCAAT | -0.204
CTAGGACC | -0.0226
AGTAGAGA | -0.193
CCCGCGTA | 0.196
TACCGGAA | 0.397
CTCGGTAC | 0.0123
CCCGACAA | 0.281
GCGCTCAC | -0.0623
ACAATGGG | 0.113
CGTCTGTA | -0.0421
AGTATAAA | 0.16
GAGCGGGC | 0.188
AGGATGAA | -0.186
ATGGGCAC | -0.12
AAAGCTCA | -0.244
AGACAATC | 0.0499

Sequence | PBM E-score
GAAACCCA | 0.13
CTTAACAA | 0.0368
AGTCCCGG | 0.362
TGAGACCA | -0.285
ATCTGTTG | -0.184
AGCTGCGG | 0.212
GCGCTATA | -0.0554
CACGTTAA | -0.238
ACAGATCG | -0.0232
CTGCACGC | -0.159
AAGCCTAG | -0.0513
ACAAGAAA | 0.083
ACCAGGAC | -0.0907
AGGCGAGA | -0.193
AGAATGAG | -0.136
CGTAGGAC | -0.0304
GACACAAA | 0.217
CCTTTCTA | -0.0629
CGGAATCC | 0.376
CTCGTGCA | -0.165
AATCCATA | -0.0527
CGCGATAC | 0.0887
AGAATCAC | 0.077
CCACGTCG | -0.036
GCTTACTA | -0.119

Sequence | PBM E-score
ACAACGGG | 0.118
CGACTAGA | -0.116
CCAGGCTA | -0.304
ACTCACCG | 0.0323
CATTTGAC | -0.0149
CCGACGGA | 0.425
GTAGGACA | 0.0198
CTTGAGCA | -0.251
ACGGCAAT | 0.214
CAGGCTCG | -0.0285
TCACGTGA | 0.0614
GTCCCAAA | -0.175
CTAACTAC | 0.00829
GCGACTCA | -0.145
GGAACAAA | 0.135
GAAAATTA | 0.19
AAGGAACG | -0.0723
ATCATACG | -0.0792
AGCCGCCG | 0.313
